Among all 44,000 compounds or so, about 340 (0.77%) were called active. Not shown: some 5% with an inconclusive outcome. Calls come from the whole dose curve; as a rule, active = well fitted inhibition curve with a large enough effect; inconclusive = small, poorly fitted or top-dose-only effect; inactive = flat fitted curve, though single readings scatter. The list shows a part of the results.
Test: Acumen qHTS Assay for Inhibitors of the mTORC1 Signaling Pathway in MEF (Tsc2-/-, p53-/-) Cells: Sytravon;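 note: plate controls were DMSO for no effect and rapamycin for full effect; nearly all actives have a fitted effect of over 50% in size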
Details: phospho-rpS6 immunofluorescence/PI, 24 h; series mostly up to 38.3 µM; activity change, negative = inhibition: at the top concentration
In short: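 Tsc2-/-, p53-/- mouse embryonic fibroblasts (empty-vector line) exposed to compound 24 hrs at 37 C, fixed, immunostained for phospho-rpS6 and counterstained with propidium iodide. Acumen laser scanning gives % positive cells from Alexa 488/PI ratio, thresholded using 7.5 nM rapamycin; PI count gives viability.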

Activity change, negative = inhibition, inactive:
COc1ccccc1CCNC(=O)c1ccc(-c2nc(CSc3ccc(C)cc3)c(C)o2)cc1 -7.84%
CSc1ncc(C(=O)Nc2c(C)cccc2C)c(-c2ccccc2)n1 -0.877%
Cc1nc2ccccc2c(=O)n1-c1ccc(NC(=O)c2cccc([N+](=O)[O-])c2)cc1 -2.34%
CCC1CN(C(=O)N2CCC(C(=O)NCCc3ccccc3Cl)CC2)c2cc(C)ccc2O1 (stereo not given) 0%
COc1cc(NC(=O)CN2c3ccccc3S(=O)(=O)c3ccccc32)cc(OC)c1 -4.09%
CCCC(O)c1nc2ccccc2n1Cc1ccccc1OC (stereo not given) 2.18%
CCOCCCn1c(SCC(=O)OCC)nc2c(sc3ccccc32)c1=O -5.11%
Cc1cccc(C(C)C)c1NC(=O)C1CCCN1S(=O)(=O)c1cccc2nsnc12 (stereo not given) 1.11%
Cc1ccc(C(=O)CSc2nc(-c3ccccc3)nc3c2CCCC3)c(C)c1 -2.14%
CCCCn1cc(S(=O)(=O)c2ccc(OC)cc2)c(=O)c2cc(CC)ccc21 -5.91%
COc1ccc(CCNC(=O)C2CCC(CNS(=O)(=O)c3ccc(C)cc3)CC2)cc1OC (stereo not given) -5.84%
CNC(=O)C1CCC(Cn2c(=O)c3sccc3n(CC(=O)Nc3ccc(C)c(C)c3)c2=O)CC1 (stereo not given) -1.47%
O=S(=O)(c1ccccc1)c1nnn2c1nc(NC1CCCCC1)c1sccc12 4.1%
COc1ccc(-c2cc(C)no2)cc1S(=O)(=O)N1CCc2ccccc21 -6.6%
Cc1ccc(Cl)cc1NC(=O)Nc1nnc(N(C)Cc2ccccc2)s1 -0.39%
Cn1c(=O)c2c(SCC(=O)Nc3ccccc3C(F)(F)F)nc(C3CCCC3)nc2n(C)c1=O 5.76%
Cc1ccc(CN(C(=O)c2ccccc2)c2ccccn2)o1 -7.48%
O=C(O)CCCCn1c(SCC(=O)Nc2ccccc2C(F)(F)F)nc2ccsc2c1=O -4.63%
Cc1ccc(NC(=O)CSc2nc(=O)n(CCN3CCOCC3)c3c2CCC3)c(C)c1 -0.798%
Cc1ccc(OCC(=O)Nc2nnc(S(=O)(=O)N3c4ccccc4CC3C)s2)cc1 (stereo not given) -4.42%
Cc1ccc(C(=O)Nc2ccc(S(=O)(=O)N3CCC(c4nc5ccccc5s4)CC3)cc2)cc1 2.45%
Cc1ccc(NC(=O)c2nc(S(C)(=O)=O)ncc2N(Cc2ccco2)Cc2cccs2)c(C)c1 -0.298%
CC(=O)N1CCc2nc3sc(C(=O)c4ccc(F)cc4)c(N)c3c(C(F)(F)F)c2C1 -9.56%
CCc1ccc(NC(=O)C(=O)NCC(c2cccnc2)N2CCN(c3ccc(F)cc3)CC2)cc1 (stereo not given) 0%
CC(=O)c1cccc(NC(=O)c2nc(-c3ccccc3)n(-c3cccc(Cl)c3)n2)c1 -0.17%
Cc1nnc(N2CCC(C(=O)N3CCCCC3)CC2)c2nn(-c3ccc(Cl)cc3)c(C)c12 -2.23%
Cc1ccc(OCCCCn2nnc3sc4c(c3c2=O)CCCC4)cc1 -0.0543%
CC(=O)c1cc(-c2ccccc2)n(CCC(=O)NCc2ccc(C)cc2)c1C 0.399%
CCOc1ccccc1Nc1sc(C(=O)c2ccccc2)c(N)c1C(=O)Nc1ccccc1 -6.24%
COc1ccc(-c2nn3c(=O)cc(CN4CCN(C(=O)c5ccc(OC)c(OC)c5)CC4)nc3s2)cc1 6.17%
CCOc1ccccc1CNc1ccc2cc(S(=O)(=O)N3CCC(C)CC3)ccc2n1 -1.74%
COc1ccc(-c2noc(N(c3nc(-c4ccc(OC)c(OC)c4)no3)c3ccccc3OC)n2)cc1OC 5.88%
CC(C)(C)c1ccc(C(=O)Nc2ccc3c(c2)CCCN3C(=O)c2cccs2)cc1 7.44%
CCOc1ccccc1NC(=O)c1ccc2c(Cl)c3c(nc2c1)CCC3 1.2%
COC(=O)c1ccc(NC(=O)CSc2nc(C)cc(C)c2C(=O)Nc2ccccc2)cc1 0.554%
Cc1nc(-c2ccc(S(=O)(=O)Nc3ccc(C#N)cc3)cc2)co1 -0.509%
COc1cc(NS(=O)(=O)c2cnc(N)nc2)cc(OC)c1 -1.59%
COc1cc(C(=O)OCc2cc(=O)n3nc(C4CCCCC4)sc3n2)cc(OC)c1OC -2.36%
CCc1cccc(NC(=O)c2cn3c4c(ccc(Cl)c4c2=O)OC(C)C3)c1 (stereo not given) 0.0538%
COc1cc2cc(CNc3ccccc3)c(=O)n(CC(=O)Nc3ccccc3)c2cc1OC -6.97%
COc1ccc(N2CCN(C(=O)c3cccc(-n4c(C)nc5cccnc54)c3)CC2)cc1 -12.3%
O=C(NCCC1=CCCCC1)c1ccc2c(c1)N(Cc1ccccc1F)C(=O)c1ccccc1S2=O (stereo not given) -5.47%
CCc1cccc(-n2c(=O)c3cccnc3n2CC(=O)NCc2ccccc2)c1 2.02%
CCn1nnc2cc(C(=O)Nc3ccc(Cl)cc3C)ccc21 -4.98%
Cc1ccc2nc(N3CCN(c4ccccc4)CC3)c3nnnn3c2c1 -8.19%
CCCNS(=O)(=O)c1ccc2nc(NC(=O)c3ccc(F)cc3)sc2c1 -9.98%
COc1cccc(NC(=O)Cn2c(=O)cc(C)c3c(C)nn(-c4cccc(F)c4)c32)c1 -9.64%
CC1CCCCN1C(=O)Cn1c(=O)n(-c2ccc(Cl)cc2)c(=O)c2c3c(sc21)CCC3 (stereo not given) -7.49%
CCN1CCN(C(c2ccc(OC)cc2)c2c(O)cc(C)n(Cc3ccco3)c2=O)CC1 (stereo not given) 0.266%
COc1ccc(CNC(=O)c2ccc(NC(=O)N3CC4CCCN4c4ccccc43)cc2)cc1 (stereo not given) 9.22%
CCN(CC)c1nc2c(-c3cccc(Br)c3)nnn2c2ccccc12 -3.76%
COc1cccc(NC(=O)C2CCN(S(=O)(=O)c3cccc4nonc34)CC2)c1 -12.3%
COCCCn1c(=N)c(C(=O)NCC2CCCO2)cc2c(=O)n3cc(C)ccc3nc21 (stereo not given) -6.31%
Cc1ccc2c(=O)cc(C(=O)Nc3ccc(S(=O)(=O)N4CCC(C)CC4)cc3)oc2c1C 4.72%
CC(=O)c1ccc(S(=O)(=O)Nc2ccc(-c3ccc(N4CCCCCC4)nn3)cc2)cc1 3.57%
COc1cc(C2CC(=O)Nc3c2c(C)nn3-c2nc(C)cc(C)n2)cc(OC)c1O (stereo not given) -0.769%
COc1cccc(-c2nn3c(=O)cc(CN4CCN(S(=O)(=O)c5ccc(C)cc5)CC4)nc3s2)c1 -7.75%
Cc1ccc(CSc2nnc(-n3c(=O)c(C#N)cc4c(=O)n5cccc(C)c5nc43)s2)cc1 -2.9%
COc1ccc(-c2nc3ccccc3n3c(-c4cccc(C)c4)c4c(=O)n(C)c(=O)n(C)c4c23)cc1 0.374%
CSc1nc(=O)c2c(n1C)NC(=O)CC2c1ccccc1OC(C)C (stereo not given) -2.95%

Reference: PubChem BioAssay AID493208 (National Center for Advancing Translational Sciences (NCATS), 2011)
